Laboratory results: publication PMC7819943, “Rice protein-binding microarrays: a tool to detect cis-acting elements near promoter regions in rice”
This is one part of the list.

Molecular target: T1, OsWOX13 (Oryza sativa, UniProt Q5QMM3 1-267)
T1 sequence: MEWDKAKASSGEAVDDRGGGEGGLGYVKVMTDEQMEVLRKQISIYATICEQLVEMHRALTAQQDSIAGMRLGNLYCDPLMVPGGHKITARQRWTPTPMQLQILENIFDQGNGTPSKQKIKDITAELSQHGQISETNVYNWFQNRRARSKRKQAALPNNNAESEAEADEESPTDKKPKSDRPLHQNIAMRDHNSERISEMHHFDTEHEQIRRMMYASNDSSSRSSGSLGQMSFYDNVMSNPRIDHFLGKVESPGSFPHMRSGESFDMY
Experiment: protein-binding microarray (RPBM); PBS, 2% BSA, 51.3 ng/ul salmon testes DNA, 50 uM zinc acetate, 200 nM TF, 25 C, 1 h; high values mean tight binding
Conditions: protein: recombinant; tags: N-terminal polyhistidine and DsRed monomer fusion (pET32a); label: CyDye5-dUTP incorporated in the synthesized complementary strand; 3' TTTTT single-stranded linker to array surface; dsDNA, one strand shown
How it was run: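 Binding signal is defined as the fluorescence intensity of each feature in arbitrary units, read on an Axon 4000B scanner. Transcription factors with N-terminal polyhistidine and DsRed fusions came from E. coli BL21-CodonPlus and were purified on Ni–NTA. They were incubated at 200 nM for 1 h at 25 °C on a custom Agilent array that had been made double-stranded with Cy5-dUTP, with 50 µM zinc acetate present, and the array was washed.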

Sequence	binding signal
CATCATCAATTGACAGCCGTTGGATCACTTGATTACATTGCGGAGTCACCTAGTGCAG	25000 fluorescence intensity (a.u.)
TAATTAAAACTTAATTAATCACACATTATTACCACTCCATCGGAGTCACCTAGTGCAG	18800 fluorescence intensity (a.u.)
ATTTGTAATTTGTATCTATATATATTTGCAATGCTTAAGCCGGAGTCACCTAGTGCAG	15600 fluorescence intensity (a.u.)
TTCATTAATCTCCCGGTGATGGATGAACGGGGAAAAGGGCCGGAGTCACCTAGTGCAG	4280 fluorescence intensity (a.u.)
TTGGATTAACACATGGATTAGCGCTTGCACCCCGTCGTCGCGGAGTCACCTAGTGCAG	7320 fluorescence intensity (a.u.)
GTATACCTTTTAATTTGTGCGAAACTATATAAATGAGGCGCGGAGTCACCTAGTGCAG	3310 fluorescence intensity (a.u.)
AACAATTGATTAGACCAGAACCAGGAGATTCTAATTTCTACGGAGTCACCTAGTGCAG	27300 fluorescence intensity (a.u.)
ACTATTGATGGAAGCAAAACAGCTCAAAGTCAAAACCGATCGGAGTCACCTAGTGCAG	4150 fluorescence intensity (a.u.)
CTTGATTAGAAGTTAACCGCAACTCTAGAAAATCATTGTTCGGAGTCACCTAGTGCAG	40800 fluorescence intensity (a.u.)
CTAATACTTAATTAATCACGCGCTAATGGACCGTTTCGTTCGGAGTCACCTAGTGCAG	20400 fluorescence intensity (a.u.)
GGAGTCGGATACATAATTGGATCGCGGATCGACTTGCCATCGGAGTCACCTAGTGCAG	4760 fluorescence intensity (a.u.)
GGTGAGCTATTAGTACATGATTAATTGAGTATAAACTATTCGGAGTCACCTAGTGCAG	10800 fluorescence intensity (a.u.)
AACTTCCAAAACAAGCCCTTTGATTGGATGAACCAGCCGGCGGAGTCACCTAGTGCAG	5060 fluorescence intensity (a.u.)
CCAAATAGCTATCAAAATTTGCCCAACTTTAACCGTGGCACGGAGTCACCTAGTGCAG	4710 fluorescence intensity (a.u.)
ATCCTAGTAATTATAGCCGTTGGAAATGAAAAGAAACGATCGGAGTCACCTAGTGCAG	3270 fluorescence intensity (a.u.)
TGACCGTTTGATTGAACGGTGAGAGAGAGACTTAAAGGAACGGAGTCACCTAGTGCAG	20900 fluorescence intensity (a.u.)
CCCTCGTCAATTCGTTAATCATATTTCTACTAACCTAAGGCGGAGTCACCTAGTGCAG	11500 fluorescence intensity (a.u.)
CATTTTAATTTAGACCACCATATTCTATCCATCTCCAAGTCGGAGTCACCTAGTGCAG	8420 fluorescence intensity (a.u.)
TCACTAAATAAATGATTAACTGTTCAATAGATCCTAAACCCGGAGTCACCTAGTGCAG	22300 fluorescence intensity (a.u.)
GGTGACACACTTCTGATTGTGCACATATGTGGCATTCTGTCGGAGTCACCTAGTGCAG	6860 fluorescence intensity (a.u.)
ATGATAAATTACTCCACAAATATGCAAGATAAAATTTAACCGGAGTCACCTAGTGCAG	9400 fluorescence intensity (a.u.)
TCCGATTAATGTGGGAATTTCTAGCCCTCACAGCGAACGTCGGAGTCACCTAGTGCAG	5780 fluorescence intensity (a.u.)
ACAGATTGAGAGGGAGCTCAGGGAACCAGTCTCACAAAATCGGAGTCACCTAGTGCAG	8100 fluorescence intensity (a.u.)
